Among the data in publication PMC5844987 are binding values, retold here.

The target of the experiment is T1, ABA receptor PYR1 (Arabidopsis), O49686.
T1 chain: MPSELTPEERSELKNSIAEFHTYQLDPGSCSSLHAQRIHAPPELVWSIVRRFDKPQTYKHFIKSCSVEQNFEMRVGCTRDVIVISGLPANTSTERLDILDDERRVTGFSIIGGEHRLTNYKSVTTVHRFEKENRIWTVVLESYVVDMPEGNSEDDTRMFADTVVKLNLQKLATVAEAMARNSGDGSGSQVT
The experiment in a line: AlphaScreen or HTRF; biotinylated ABA receptor and AGIA-tagged ABA receptor, crude wheat cell-free translation mixtures, without ABA; 14 x 14 matrix; pair = signal at least two times that of DHFR. The note with it: remark: other sources report otherwise.

These are yes or no findings as the source states them, for the method shown.

B1: ABA receptor PYR1, O49686 1-191 (receptor)
chain: MPSELTPEERSELKNSIAEFHTYQLDPGSCSSLHAQRIHAPPELVWSIVRRFDKPQTYKHFIKSCSVEQNFEMRVGCTRDVIVISGLPANTSTERLDILDDERRVTGFSIIGGEHRLTNYKSVTTVHRFEKENRIWTVVLESYVVDMPEGNSEDDTRMFADTVVKLNLQKLATVAEAMARNSGDGSGSQVT
modifications: here or on the partner: N-terminal mono-biotinylation (BirA); N-terminal mono-biotinylation (BirA)
Regarding B1, the binding result is recorded as “no binding”.
